Measured values published in the supplement of paper PMC12217912.
The other results are listed elsewhere or left out. The full chains were built here from the parent and the listed change. Inactive controls read about 0.05.

B1: TEV protease; numbered along this chain (parent)
chain: MGESLFKGPRDYNPISSSICHLTNESDGHTTSLYGIGFGPFIITNKHLFRRNNGTLVVQSLHGVFKVKDTTTLQQHLVDGRDMIIIRMPKDFPPFPQKLKFREPQREERICLVTTNFQTKSMSSMVSDTSCTFPSGDGIFWKHWIQTKDGQCGSPLVSTRDGFIVGIHSASNFTNTNNYFTSVPKNFMELLTNQEAQQWVSGWRLNADSVLWGGHKVFMVKPEEPFQPVKEATQL

Variants of: B1
Assay: raw area under fraction-flipped curve 0-4 h after induction (AUC4h, not background-subtracted), DNA-recorder readout of cleavage of the substrate (dimensionless); higher = more cleavage of the substrate by the protease variant
Settings: temperature: 34 °C; time window: 0-4 h after rhamnose induction
Procedure: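 In vivo DNA recorder in E. coli TOP10(DE3) ΔrhaA at 34 °C. Each TEVp single-site mutant (parent TEVp 0) is paired with a single-site variant of the 7-mer TEVs (canonical ENLYFQ|S). The substrate sits between flexible linkers in a Bxb1-sfGFP-TEVs-SsrA fusion, so cleavage stabilises Bxb1 and speeds flipping of a recombination array, read by NGS. The value is the raw area under the fraction-flipped curve over 0-4 h after rhamnose induction (AUC4h), with ≥20 reads per time point. It is not background-subtracted; inactive controls average about 0.047.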
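Note: Bxb1 expression induced with 0.2% (w/v) L-rhamnose at OD600 near 0.5, cultures sampled hourly, flipped fraction per protease–substrate barcode pair counted by paired-end Illumina sequencing.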

| Variant | area with substrate ENLYFAS | area with substrate ENLYFCS | area with substrate ENLYFES | area with substrate ENLYFGS | area with substrate ENLYFHS | area with substrate ENLYFIS | area with substrate ENLYFKS | area with substrate ENLYFMS | area with substrate ENLYFNS | area with substrate ENLYFPS | area with substrate ENLYFRS | area with substrate ENLYFSS | area with substrate ENLYFTS | area with substrate ENLYFVS | area with substrate ENLYFWS | area with substrate ENLYFFS | area with substrate ENLYFLS | area with substrate ENLYFYS | area with substrate ENLYFDS |
| --- | --- | --- | --- | --- | --- | --- | --- | --- | --- | --- | --- | --- | --- | --- | --- | --- | --- | --- | --- |
| MGESLFKGPRDYNPISSSICHLTNESDGHTTSLYGIGFGPFIITNKHLFRRNNGTLVVQSLHGVFKVKDTTTLQQHLVDGRDMIIIRMPKDFPPFPQKLKFREPQREERICLVTTNFQTKSMESMVSDTSCTFPSGDGIFWKHWIQTKDGQCGSPLVSTRDGFIVGIHSASNFTNTNNYFTSVPKNFMELLTNQEAQQWVSGWRLNADSVLWGGHKVFMVKPEEPFQPVKEATQL [S123E] | 0.0651 | 0.0503 | 0.0647 | 0.0526 | 0.0649 | 0.0519 | 0.071 | 0.0566 | 0.0659 | 0.0688 | 0.0607 | 0.0622 | 0.0605 | 0.0527 | 0.0579 |  |  |  |  |
| MGESLFKGPRDYNPISSSICHLTNESDGHTTSLYGIGFGPFIITNKHLFRRNNGTLVVQSLHGVFKVKDTTTLQQHLVDGRDMIIIRMPKDFPPFPQKLKFREPQREERICLVTTNFQTKSMGSMVSDTSCTFPSGDGIFWKHWIQTKDGQCGSPLVSTRDGFIVGIHSASNFTNTNNYFTSVPKNFMELLTNQEAQQWVSGWRLNADSVLWGGHKVFMVKPEEPFQPVKEATQL [S123G] | 0.0479 | 0.0575 | 0.0631 |  | 0.0752 | 0.0537 | 0.059 | 0.0719 | 0.0766 | 0.0661 | 0.0437 | 0.0742 | 0.0645 |  | 0.0619 | 0.071 | 0.0698 | 0.0468 |  |
| MGESLFKGPRDYNPISSSICHLTNESDGHTTSLYGIGFGPFIITNKHLFRRNNGTLVVQSLHGVFKVKDTTTLQQHLVDGRDMIIIRMPKDFPPFPQKLKFREPQREERICLVTENFQTKSMSSMVSDTSCTFPSGDGIFWKHWIQTKDGQCGSPLVSTRDGFIVGIHSASNFTNTNNYFTSVPKNFMELLTNQEAQQWVSGWRLNADSVLWGGHKVFMVKPEEPFQPVKEATQL [T115E] | 0.0634 | 0.0707 |  |  | 0.0702 | 0.0678 |  | 0.0413 |  | 0.0585 | 0.0671 | 0.0592 | 0.0569 | 0.058 | 0.0541 | 0.0643 |  |  | 0.0479 |
| MGESLFKGPRDYNPISSSICHLTNESDGHTTSLYGIGFGPFIITNKHLFRRNNGTLVVQSLHGVFKVKDTTTLQQHLVDGRDMIIIRMPKDFPPFPQKLKFREPQREERICLVTFNFQTKSMSSMVSDTSCTFPSGDGIFWKHWIQTKDGQCGSPLVSTRDGFIVGIHSASNFTNTNNYFTSVPKNFMELLTNQEAQQWVSGWRLNADSVLWGGHKVFMVKPEEPFQPVKEATQL [T115F] | 0.0475 | 0.0614 |  |  | 0.0566 | 0.052 | 0.0712 | 0.0692 | 0.0808 | 0.0535 | 0.0891 | 0.0587 | 0.068 |  | 0.0451 | 0.0617 |  | 0.063 | 0.0582 |
| MGESLFKGPRDYNPISSSICHLTNESDGHTTSLYGIGFGPFIITNKHLFRRNNGTLVVQSLHGVFKVKDTTTLQQHLVDGRDMIIIRMPKDFPPFPQKLKFREPQREERICLVTTNFQTKSMSIMVSDTSCTFPSGDGIFWKHWIQTKDGQCGSPLVSTRDGFIVGIHSASNFTNTNNYFTSVPKNFMELLTNQEAQQWVSGWRLNADSVLWGGHKVFMVKPEEPFQPVKEATQL [S124I] | 0.0654 |  | 0.065 |  |  |  | 0.0563 | 0.0636 | 0.055 | 0.0491 |  | 0.066 | 0.0701 |  | 0.0617 | 0.0682 | 0.0557 | 0.0683 |  |
| MGESLFKGPRDYNPISSSICHLTNESDGHTTSLYGIGFGPFIITNKHLFRRNNGTLVVQSLHGVFKVKDTTTLQQHLVDGRDMIIIRMPKDFPPFPQKLKFREPQREERICLVTTNFQTKSMSTMVSDTSCTFPSGDGIFWKHWIQTKDGQCGSPLVSTRDGFIVGIHSASNFTNTNNYFTSVPKNFMELLTNQEAQQWVSGWRLNADSVLWGGHKVFMVKPEEPFQPVKEATQL [S124T] | 0.0469 | 0.0563 |  | 0.0615 |  | 0.0624 | 0.0509 | 0.0671 |  | 0.0483 | 0.0609 |  |  | 0.0874 |  | 0.0644 |  | 0.0438 | 0.0898 |
| MGESLFKGPRDYNPISSSICHLTNESDGHTTSLYGIGFGPFIITNKHLFRRNNGTLVVQSLHGVFKVKDTTTLQQHLVDGRDMIIIRMPKDFPPFPQKLKFREPQREERICRVTTNFQTKSMSSMVSDTSCTFPSGDGIFWKHWIQTKDGQCGSPLVSTRDGFIVGIHSASNFTNTNNYFTSVPKNFMELLTNQEAQQWVSGWRLNADSVLWGGHKVFMVKPEEPFQPVKEATQL [L112R] | 0.0542 | 0.0594 |  | 0.0652 | 0.0463 | 0.0513 |  | 0.0759 | 0.0649 | 0.064 | 0.054 |  | 0.0565 | 0.0559 | 0.0298 | 0.0566 | 0.0835 |  |  |
| MGESLFKGPRDYNPISSSICHLTNESDGHTTSLYGIGFGPFIITNKHLFRRNNGTLVVQSLHGVFKVKDTTTLQQHLVDGRDMIIIRMPKDFPPFPQKLKFREPQREERICEVTTNFQTKSMSSMVSDTSCTFPSGDGIFWKHWIQTKDGQCGSPLVSTRDGFIVGIHSASNFTNTNNYFTSVPKNFMELLTNQEAQQWVSGWRLNADSVLWGGHKVFMVKPEEPFQPVKEATQL [L112E] | 0.0655 | 0.0549 |  |  |  | 0.0578 | 0.0578 | 0.0569 |  | 0.0601 | 0.0524 | 0.0528 | 0.0446 |  | 0.0543 |  | 0.0558 | 0.0481 | 0.0561 |
